Source: the supplement of paper PMC3334620
Whole data set: some 33,000 sequences, median “E-score (-0.5 to 0.5)” near -0.016, cut for the highest 2% near 0.31. The list shows a part of the results.

These sequences were tested against Cst6 (UniProt P40535) (assay: PBM E-score (8-mer binding enrichment) (E-score (-0.5 to 0.5)); higher = stronger / more preferred TF binding; most listed sequences are background and not binding sites). Conditions: protein concentration: 200 nM; construct: GST-DNA-binding domain.
Method in brief: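 GST-tagged yeast TFs (full-length or DNA-binding domain) were made by PURExpress in vitro transcription/translation and applied at about 100-200 nM to universal all-10-mer Agilent arrays. The arrays were made double-stranded by primer extension, on fresh or once-stripped slides. Bound protein was detected with fluorescent anti-GST, and scans were normalised with masliner. Each ungapped eight-base word, pooled with its reverse complement, received an E-score (modified Wilcoxon-Mann-Whitney statistic) from the Universal PBM Analysis Suite.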

Compared with AACGGGCT, GGTGATTA is higher in “PBM E-score” value: -0.296 for the first, 0.206 for the second.

First: ACCCTCCA
Second: AATCGGCC
The “PBM E-score” value of the first is lower: -0.28 for the first, -0.117 for the second.

Compared with CCGATCCA, AAAGTTTC is higher in “PBM E-score” value: -0.0479 for the first, 0.0152 for the second.

First: GAGTCGCA
Second: CAGGTGAG
The “PBM E-score” value of the first is lower: -0.285 for the first, -0.282 for the second.

Going from GGCAATGA to CACGCTGG, the “PBM E-score” value falls from 0.207 to -0.133.

First: CAAGTACA
Second: CTGACTTC
The “PBM E-score” value of the first is lower: -0.116 for the first, -0.0605 for the second.

Going from GGCCCCAC to CACACTAC, the “PBM E-score” value rises from -0.244 to -0.0388.

Compared with AATTTAAC, CCGTATCC is lower in “PBM E-score” value: 0.249 for the first, -0.0302 for the second.

Going from CATGTGCC to ATCCACGG, the “PBM E-score” value rises from 0.00406 to 0.0444.

Compared with GTCCCGTA, GTCAAACA is higher in “PBM E-score” value: -0.0814 for the first, 0.123 for the second.

Going from CCCATGGC to AATTTGCA, the “PBM E-score” value rises from -0.231 to 0.0546.

Going from GCGTAACA to AGTTTGTG, the “PBM E-score” value falls from 0.195 to -0.0842.

First: CTCATGAA
Second: ATAAACAA
The “PBM E-score” value of the first is lower: 0.158 for the first, 0.261 for the second.

Going from CAGGGGCA to CTCCTTCA, the “PBM E-score” value falls from -0.121 to -0.294.

Compared with AGGGATAT, ACCCCGTG is higher in “PBM E-score” value: -0.165 for the first, -0.0651 for the second.

First: CGTAATAC
Second: CCGCTGGA
The “PBM E-score” value of the first is higher: 0.366 for the first, -0.117 for the second.

First: ATTATTCG
Second: CGAGCGAG
The “PBM E-score” value of the first is higher: 0.235 for the first, 0.165 for the second.

Compared with GTAAGGAA, GTAGCATA is higher in “PBM E-score” value: -0.0373 for the first, 0.0646 for the second.

Compared with TTAAAAAA, AACGCACG is lower in “PBM E-score” value: 0.306 for the first, 0.179 for the second.

Compared with GAATCTGA, TCACACAA is higher in “PBM E-score” value: -0.108 for the first, 0.0912 for the second.

Compared with ACAATTTA, AATCCCGG is lower in “PBM E-score” value: 0.204 for the first, -0.223 for the second.

Compared with GGCAGCAA, ACACCCTC is lower in “PBM E-score” value: -0.0802 for the first, -0.27 for the second.

Going from ATGCGACA to GGCCGGCC, the “PBM E-score” value falls from 0.0988 to -0.227.

Compared with GCGAACGA, CTTCTGCA is higher in “PBM E-score” value: -0.009 for the first, 0.0581 for the second.

Compared with CTCCAGGC, CTTGCGGC is higher in “PBM E-score” value: -0.193 for the first, -0.0317 for the second.

Going from CGGCAGCC to AATCTTAC, the “PBM E-score” value rises from -0.158 to 0.279.

First: AGTCCATA
Second: GATCCGAC
The “PBM E-score” value of the first is higher: -0.0525 for the first, -0.146 for the second.

First: ACTCGGCT
Second: CATGGTGG
The “PBM E-score” value of the first is higher: -0.151 for the first, -0.268 for the second.

Compared with CGTATTCC, GCAGACCC is lower in “PBM E-score” value: 0.171 for the first, -0.299 for the second.

First: CTTTCCAA
Second: AAGCACAT
The “PBM E-score” value of the first is higher: 0.0651 for the first, -0.0897 for the second.

Compared with AACTCGGA, AGACGTCA is higher in “PBM E-score” value: -0.116 for the first, 0.484 for the second.

Compared with AAGTTTGA, CACGAGCC is lower in “PBM E-score” value: 0.0584 for the first, -0.163 for the second.

Going from ACGTCCGA to AGTCTTAC, the “PBM E-score” value rises from -0.039 to 0.0422.

First: AGCTTGCA
Second: AAGATGTC
The “PBM E-score” value of the first is higher: 0.0382 for the first, 0.0357 for the second.

Compared with AATCGTGT, AGGGGGAG is lower in “PBM E-score” value: -0.0469 for the first, -0.445 for the second.

First: AGCCGTTG
Second: ACTGAAGA
The “PBM E-score” value of the first is lower: 0.0249 for the first, 0.214 for the second.

First: ATCTGAAT
Second: CCGTTGCC
The “PBM E-score” value of the first is higher: 0.128 for the first, -0.258 for the second.

First: CCCGGCGC
Second: CACCGAAA
The “PBM E-score” value of the first is lower: -0.176 for the first, 0.116 for the second.

Compared with CTCACAGC, ACCAATTG is higher in “PBM E-score” value: 0.0123 for the first, 0.0868 for the second.

Going from ATCTGCGG to AAATCCTA, the “PBM E-score” value falls from 0.0732 to 0.0429.

Going from AGAACCGG to ACGCCTCC, the “PBM E-score” value rises from -0.163 to -0.0928.

Going from ATCCCCAG to ACCCGACG, the “PBM E-score” value rises from -0.195 to -0.106.

Compared with CATAGGAG, ACTAACCA is higher in “PBM E-score” value: -0.0603 for the first, 0.0689 for the second.
